In all, about 44,000 compounds went through this assay and about 340 (0.77%) were called active. Not shown: some 5% with an inconclusive outcome. The call rests on the fitted dose curve; in most records, active means well fitted inhibition curve with a large enough effect; inconclusive means small, poorly fitted or top-dose-only effect; inactive means flat fitted curve, though single readings scatter. This is one part of the list.
assay: Acumen qHTS Assay for Inhibitors of the mTORC1 Signaling Pathway in MEF (Tsc2-/-, p53-/-) Cells: Sytravon; settings: phospho-rpS6 immunofluorescence/PI, 24 h; series mostly up to 38.3 µM; activity change, negative = inhibition: at the top concentration;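 further: plate controls were DMSO for no effect and rapamycin for full effect; nearly all actives have a fitted effect of over 50% in size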
How it was run: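 Compounds act on Tsc2-/-, p53-/- fibroblasts carrying an empty vector for 24 h before fixation and dual staining for phospho-S6 and DNA (propidium iodide). Values are percentages of cells above a rapamycin-defined pS6/PI threshold.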

| Compound | activity change, negative = inhibition |
| --- | --- |
| Cc1ccccc1-c1nc(CS(=O)(=O)CC(=O)NCCc2ccccc2)c(C)o1 | inactive: -0.942% |
| O=C(Nc1ccc2nc(SCC(=O)N3CCc4ccccc43)sc2c1)c1cccc(F)c1 | inactive: -10.4% |
| COc1ccc(Cl)cc1NC(=O)CSc1nc2ccccc2c2nc(-c3ccccc3)nn12 | inactive: -10.8% |
| Cc1ccc(C(=O)Nc2ccccc2)cc1S(=O)(=O)Nc1ccc(Br)cc1 | inactive: 8.37% |
| COCCNC(=O)CCn1c(=O)c2cc(OC)c(OC)cc2n(CC(=O)Nc2ccccc2C)c1=O | inactive: 3.96% |
| CS(=O)(=O)NCC(c1ccco1)N1CCN(c2ccc(F)cc2)CC1 (stereo not given) | inactive: -2.43% |
| O=S(=O)(c1ccc(-c2cc(C(F)(F)F)on2)s1)N1CCN(c2ccccc2)CC1 | inactive: 0% |
| COc1ccc(S(=O)(=O)N2CCN(Cc3ccc4c(c3)OCO4)CC2)cc1C | inactive: -5.37% |
| Cc1cccc(C)c1NC(=O)C(=O)NCC(c1ccc2c(c1)OCO2)N1CCOCC1 (stereo not given) | inactive: 0.54% |
| CCc1ccccc1NC(=O)Nc1cc(C(=O)NCc2cccc(F)c2)ccc1N1CCCC1 | inactive: 4.01% |
| CCOC(=O)c1c(NC(=O)COc2ccc(Br)cc2)sc2c1CCCC2 | inactive: -14.4% |
| O=C(Cn1ncn2nc(-c3cccs3)cc2c1=O)NCc1ccc(Cl)cc1 | inactive: -0.463% |
| CCc1ccc(S(=O)(=O)c2nnn3c2nc(Nc2ccc(C)c(Cl)c2)c2sccc23)cc1 | inactive: 0.19% |
| Cc1oc(-c2cccc(Cl)c2)nc1CN1CCCC(C(=O)NCCc2ccc(Cl)cc2)C1 (stereo not given) | inactive: 0.436% |
| CCn1c(SCc2cccc(Br)c2)nnc1-c1nonc1NC(C)=O | inactive: -15% |
| CC(C)CNC(=O)C(=O)Nc1c2c(nn1-c1ccccc1)CS(=O)(=O)C2 | inactive: 1.91% |
| CSc1cccc(NC(=O)Cn2c(=O)n(Cc3ccccc3)c(=O)c3sc4ccccc4c32)c1 | inactive: -13.6% |
| CC(=O)Nc1cc(C(=O)NCc2ccc(C)cc2)ccc1S(=O)(=O)c1ccc(Cl)cc1 | inactive: 13.3% |
| CCOC(=O)CN1C(C(=O)c2ccccc2)=C(OC(=O)C(C)(C)C)c2ccccc2S1(=O)=O | inactive: -3.58% |
| Cc1cc(C)n(-c2nc3cc(Cl)ccc3nc2Nc2ccc(C)c(F)c2)n1 | inactive: -0.266% |

| Compound | activity change, negative = inhibition |
| --- | --- |
| CCn1ccc2cc(S(=O)(=O)N3CCC(C(=O)NCc4cccc(Cl)c4)CC3)ccc21 | inactive: 0% |
| Cc1cccc(-n2ncc(C(=O)N3CCN(Cc4ccccc4)CC3)c2C2CCN(C(=O)OC(C)(C)C)CC2)c1 | inactive: -25.7% |
| CCOc1ccc(N(C)S(=O)(=O)c2c(C(=O)N3CCC(C)CC3)c(C)n(C)c2C)cc1 | inactive: 0% |
| COc1ccc(Cn2c(CCC(=O)Nc3ccc(C)cc3)nc3cccnc32)cc1 | inactive: -10% |
| Cc1ccc(NC(=O)Cn2nnc3sc4c(c3c2=O)CCC(C)C4)cc1 (stereo not given) | inactive: 4.02% |
| CCOc1ccccc1NC(=O)N1c2ccccc2Sc2ccccc21 | inactive: -9.54% |
| COc1ccc(Nc2cc(C(=O)NCc3cccs3)c3ccccc3n2)cc1 | inactive: 5.84% |
| O=C(CCCCn1c(=O)c2ccccc2n(CC(=O)Nc2ccc(F)cc2F)c1=O)NCc1ccccc1Cl | inactive: -1.73% |
| O=C(CSc1ncc(-c2ccccc2)[nH]1)Nc1ccc(F)cc1F | inactive: -38.8% |
| CCCCOC(=O)Cn1nnc2sc(-c3ccccc3)cc2c1=O | inactive: -6.07% |
| CN1CCN(C(=O)C(=O)Nc2c3c(nn2-c2cccc(Cl)c2)CSC3)CC1 | inactive: -0.836% |
| CCOC(=O)c1c(C)[nH]c(C)c1S(=O)(=O)N1CCCC(C(=O)NCc2ccc(C)cc2)C1 (stereo not given) | inactive: -1.71% |
| Cc1ccc(Cn2c(=O)n(CCc3ccccc3)c(=O)c3c(C)c(C)sc32)cc1 | inactive: -1.2% |
| CCc1ccccc1N1C(=O)N(CC(=O)c2ccc(Cl)cc2)c2ccccc2S1(=O)=O | inactive: -5.57% |
| COC(=O)c1c(SC)nc2ccccc2c1OCc1ccc(C)cc1 | inactive: -2.63% |
| CCOC(=O)Cn1c(=O)oc2cc(S(=O)(=O)N3CCCC(C)C3)ccc21 (stereo not given) | inactive: -0.679% |
| O=C(NCc1ccc(Cl)cc1)c1ccc2oc(=O)n(Cc3ccccc3)c2c1 | inactive: -0.338% |
| CCOC(=O)c1cc(S(=O)(=O)N2CCN(c3cccc(OC)c3)CC2)[nH]n1 | inactive: -0.419% |
| CCCCn1cc(S(=O)(=O)c2ccc(Cl)cc2)c(=O)c2cc(F)c(N3CCCC(C)C3)cc21 (stereo not given) | inactive: -2.03% |
| COC(=O)c1c(-c2ccc(Cl)cc2)noc1N1CCN(c2cccc(C)c2C)CC1 | inactive: -18.4% |

| Compound | activity change, negative = inhibition |
| --- | --- |
| CCc1cnc2c(c1SCC(=O)Nc1ccc(OC)c(OC)c1)c(=O)n(C)c(=O)n2C | inactive: -7.14% |
| CCOc1ccc(CNC(=O)Cn2cc3c(n2)-c2c(oc(C(=O)N4CCCC4)c2C)CC3)cc1 | inactive: -9.45% |
| COc1cccc(CNC(=O)Cn2nc3c(cc2=O)CCCC3)c1OC | inactive: -7.04% |
| CC1CCCN(C(=O)CCS(=O)(=O)c2cc3c(cc2Cl)NC(=O)CO3)C1 (stereo not given) | inactive: -2.23% |
| O=C(CCCn1c(=O)[nH]c2ccsc2c1=O)N1CCN(c2cccc(C(F)(F)F)c2)CC1 | inactive: -0.217% |
| Cc1cc(Cl)ccc1NC(=O)CN1C(=O)COc2ccc(S(=O)(=O)N3CCC(C)CC3)cc21 | inactive: -1.46% |
| CCOC(=O)c1noc2ncn(Cc3cccc(C#N)c3)c(=O)c12 | inactive: -0.235% |
| CCOc1ccc(CCNC(=O)CCCc2nnc3n(C)c(=O)c4sccc4n23)cc1OCC | inactive: 3.4% |
| COc1ccccc1CN(Cc1ccco1)c1cnc(S(C)(=O)=O)nc1C(=O)Nc1ccccc1Cl | inactive: 0.102% |
| CCNc1nc(NC(C)CC)nc(Oc2ccc(OCC)nn2)n1 (stereo not given) | inactive: 5.48% |
| COc1ccc(NC(=O)NCc2c(-n3cccc3)sc3c2CCCC3)c(OC)c1 | inactive: 1.47% |
| CCc1cccc(C)c1NC(=O)NC1COc2ccccc2C1 (stereo not given) | inactive: 0% |
| COc1ccc(OCC(=O)Nc2nc(-c3ccc(Br)cc3)ns2)cc1 | inactive: 0% |
| COc1ccc(NC(=O)CSc2nc(-c3ccc(OC)c(OC)c3)[nH]c2-c2ccc(C)cc2)cc1 | inactive: 0.454% |
| CCOC(=O)Cc1ccc(NC(=O)N(C(C)C)C2CCN(C(C)=O)CC2)cc1 | inactive: 2.97% |
| COc1ccc(NCc2cc3cc4c(cc3n(CC(=O)Nc3ccccc3)c2=O)OCO4)cc1 | inactive: -8.45% |
| Cn1c(=O)c2c(n3c4ccccc4nc13)NC(=O)CC2c1cccc(Cl)c1 (stereo not given) | inactive: 0.366% |
| COc1ccc(Cl)cc1NC(=O)Cn1nnc(C(=O)NCc2ccc3c(c2)OCO3)c1N | inactive: -0.352% |
| COC(=O)c1sccc1S(=O)(=O)N1CCN(c2ccc(C(C)=O)cc2)CC1 | inactive: -0.249% |
| Cc1ccc(Cn2c(CN3CCC(C(=O)NCC(C)c4ccccc4)CC3)cc3ccccc32)cc1 (stereo not given) | inactive: -19.1% |

Reference: PubChem BioAssay AID493208 (National Center for Advancing Translational Sciences (NCATS), 2011)
